Experimental data taken from the supplement of paper PMC3334620.
The full ranking holds about 33,000 sequences; the median of “E-score (-0.5 to 0.5)” is about -0.013, and the highest 2% start at about 0.3. Some of the results follow.

What follows are sequences tested against T1, Msn1 (UniProt P22148) (assay: PBM E-score (8-mer binding enrichment) (E-score (-0.5 to 0.5)); higher = stronger / more preferred TF binding; most listed sequences are background and not binding sites). Conditions: protein concentration: 200 nM; construct: GST-full length.
T1 sequence: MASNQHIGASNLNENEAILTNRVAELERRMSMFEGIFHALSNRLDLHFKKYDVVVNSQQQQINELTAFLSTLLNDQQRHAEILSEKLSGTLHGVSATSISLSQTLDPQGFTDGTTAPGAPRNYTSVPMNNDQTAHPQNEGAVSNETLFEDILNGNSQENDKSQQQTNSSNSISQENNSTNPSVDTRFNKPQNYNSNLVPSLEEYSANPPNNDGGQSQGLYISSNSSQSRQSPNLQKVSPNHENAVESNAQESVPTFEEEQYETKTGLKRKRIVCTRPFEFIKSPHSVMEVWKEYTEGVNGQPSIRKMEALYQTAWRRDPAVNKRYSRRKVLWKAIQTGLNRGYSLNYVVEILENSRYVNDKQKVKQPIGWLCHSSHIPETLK
Summary of the method: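 Universal all-10-mer Agilent arrays, fresh or stripped once, were converted to double-stranded form by primer extension. GST-tagged yeast transcription factors from PURExpress in vitro transcription/translation, full-length or DNA-binding domain only, were applied at about 100-200 nM and detected with fluorescent anti-GST. After masliner normalisation, the Universal PBM Analysis Suite scored each ungapped eight-base word together with its reverse complement by E-score.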

| Sequence | PBM E-score |
| --- | --- |
| AACGAGTG | -0.0417 |
| TAACAGGA | 0.167 |
| CGAAATGC | 0.209 |
| GCCGATAC | 0.0549 |
| CACGCATC | 0.0651 |
| GCTAGTGA | -0.00743 |
| CGGCGCAG | -0.0403 |
| AGTACCAC | 0.0226 |
| ACCCTCAT | -0.193 |
| CCGGTTAG | -0.0418 |
| CTAAGAAG | 0.0808 |
| GAGCGACC | -0.092 |
| CAAACCCA | 0.193 |
| CGGACAAG | 0.418 |
| CACTCCCG | -0.221 |
| AACACGCC | -0.12 |
| GGATAAGA | -0.0955 |
| AGTAAATC | 0.0555 |
| GAAATGTC | 0.487 |
| AAGATTGA | -0.0967 |
| CGTATCCA | -0.0727 |
| GAATAGTA | 0.172 |

| Sequence | PBM E-score |
| --- | --- |
| ACTGAGAA | 0.0683 |
| GCAACCCC | -0.177 |
| ACGGACTC | 0.00234 |
| CGGGATTA | 0.00663 |
| ATAAATGG | 0.0876 |
| ATGACGAG | -0.0459 |
| ACATTTAT | 0.319 |
| GCTCTTTA | -0.0377 |
| ACCCACGT | -0.0473 |
| CTCTCTGC | -0.165 |
| AAACGGTA | 0.207 |
| AGCATTAG | -0.0475 |
| ATCGTTGA | -0.0156 |
| ATCGTCAA | 0.114 |
| CACCTTAG | -0.138 |
| CGTCTTGA | 0.24 |
| ACGATGGC | -0.107 |
| AACAGAAA | 0.00656 |
| GTACACAA | 0.245 |
| GTACAACA | 0.223 |
| ATACATGC | -0.0108 |
| CGCGTTCA | 0.0682 |

| Sequence | PBM E-score |
| --- | --- |
| CATGCCGG | 0.114 |
| CTATGACA | 0.375 |
| GCAGGAAC | -0.0846 |
| ATGGTTTA | 0.061 |
| CCATTATA | 0.135 |
| CTCGTTGC | 0.0629 |
| TACTGGGA | 0.139 |
| AGCGAGGG | -0.293 |
| AGTGCGAC | -0.0454 |
| CGAAAGAA | 0.0235 |
| ACCCGAGG | -0.0428 |
| TGTGTTAA | 0.1 |
| CTCTTGTC | 0.339 |
| AGATTTAG | 0.0382 |
| TACATTAA | 0.277 |
| GTGTAATA | 0.0143 |
| ATGGCCAA | 0.0575 |
| GCGGGCCA | -0.199 |
| CAAGGGCA | -0.0151 |
| ACGCCATC | -0.0776 |
| ATGAGACC | -0.0403 |
| ATCAAAGG | 0.00205 |

| Sequence | PBM E-score |
| --- | --- |
| CCACCGAA | 0.0835 |
| ATTCATGA | 0.157 |
| AATTATCC | 0.137 |
| ACATGGTA | 0.0751 |
| GACAAGCA | 0.278 |
| AAGCTCGT | 0.0392 |
| ATTCTTTC | 0.0866 |
| GAGCGAGA | 0.191 |
| CACTGGAA | -0.137 |
| ACTGGAAA | -0.0354 |
| GGCCTGAC | -0.0709 |
| ACATTAGG | 0.138 |
| CGAGGGTC | -0.218 |
| GAGGCGAA | 0.016 |
| CTTGACAA | 0.215 |
| ATGTGGGA | 0.00864 |
| GAACATTC | 0.0801 |
| AATTTGCG | 0.058 |
| GCTGTACA | -0.0116 |
| TCACCTGA | -0.112 |
